In all, about 13,000 compounds were measured (“IFI”: median about 4, highest 2% from about 17 on). The list shows a part of the results.
Assay: GSK_TCMDC: Inhibition Frequency Index (IFI). The number of non-kinase HTS assays where a compound showed > 50 % inhibition, expressed as a percentage of the number of such assays in which the compound was tested (-0 is zero)
Type: functional

Row | Compound | IFI [%]
1 | CCc1c(C)nc(-n2nc(C)cc2NC(=O)c2ccc(OC)cc2OC)[nH]c1=O | 11.5
2 | CCCCCCCN1CCC(NC(=O)Nc2ccnc3ccc(OC)cc23)C(C(=O)OCC)C1 (centres undefined) | 2.17
3 | O=C(Nc1ccc(-c2csc(-c3nc4ccccc4[nH]3)c2)cc1)Nc1ccc(Cl)c(Cl)c1 | 5
4 | CN1CCN(CC(=O)Nc2ccc(-c3cccc(-c4nc5cc(C(F)(F)F)ccc5[nH]4)c3)cc2)CC1 | 2.65
5 | CN(CCCc1c[nH]c2ccccc12)CCC1CCC(NC(=O)/C=C/c2ccc(Cl)c(Cl)c2)CC1 (centres undefined) | 7.09
6 | CCCCOc1cc2c(cc1OCC)C(C=Cc1ccc(Cl)cc1Cl)=NCC2 | 6.67
7 | O=C(NC1CCN(CCCc2ccccc2)CC1)c1ccc(-c2cccc(C(F)(F)F)c2)s1 | 17.2
8 | CN(C)Cc1cccc(-c2ccc(NC(=O)c3ccc4c(=O)n(CCN5CCCCC5)cnc4c3)cc2)c1 | 3.96
9 | CC(=NNC(S)=NC(c1ccccc1)c1ccccc1)c1ccccn1 | 5.88
10 | CS(=O)(=O)c1ccc2c(c1)CCN(CCC1CCC(NC(=O)C(=Cc3cccc(C#N)c3)c3ccc(-c4ccccc4)cc3)CC1)CC2 (centres undefined) | 7.59
11 | O=C(O)c1cccc2c(-c3ccncc3)cccc12 | -0
12 | FC(F)(F)c1ccc2c(C=Cc3ccncc3)c[nH]c2c1 | 1.48
13 | O=C(Nc1cccc(-c2ccc(-c3nc4ccccc4[nH]3)cc2)c1)c1cnn2cccnc12 | 2.86
14 | C#CCCOc1ccc2ccccc2c1CNCCCCCCNCc1c(OCCC#C)ccc2ccccc12 | 12.8
15 | COc1ccc(-n2cc(C(=O)c3cc(Br)ccc3O)cc(C#N)c2=O)cc1Cl | 14.8
16 | CN1CCC(Oc2ccc(Nc3nccc(NCC(O)c4ccccc4)n3)cc2Cl)CC1 (centres undefined) | 7.14
17 | O=C(Nc1ccc(C2=NC3CCCCC3N2)cc1)Nc1ccc(C2=NC3CCCCC3N2)cc1 (centres undefined) | 2.88
18 | Cc1cc(N[C@@H](Cc2ccccc2)C(=O)NCc2cccc(F)c2)nc(NCCc2cccnc2)n1 | 2.44
19 | Oc1cc(NC[C@@H]2CCC[C@@H]2NCc2ccc(Cl)c(Cl)c2)nc2ccccc12 | 12
20 | CC(=O)Nc1ccc(CN2CCC(NC(=O)c3ccc(-c4cccc(C(F)(F)F)c4)s3)CC2)cc1 | 10.3

Row | Compound | IFI [%]
21 | CON(CCCN(C)C)C(=N)N | -0
22 | COc1ccc(CNC2CCN(C)CC2)cc1-c1ccc(S(=O)(=O)NC2CCC2)c(C)c1 | 5.88
23 | C=CCOC(=O)N1CCC(CNCc2cccc(-c3cccc(-c4nc5cccc(C)c5[nH]4)c3)c2)C1 (centres undefined) | 5
24 | COc1cccc(C2(c3cccc(OC)c3)N=C(N)N(CCCc3ccccc3)C2=O)c1 | 9
25 | COc1ccc(-c2ccc(NC(=O)c3cccc(Cl)c3)cc2)cc1CN1CCCC1 | 6.8
26 | COC(=O)c1cccc(N2CCN(CCCNC(=O)/C(=C/C=C/c3cc4cc(Cl)c(Cl)cc4[nH]3)OC)CC2)c1 | 6.11
27 | CCCCSc1ccc(CNCCCCCCNCc2ccc(SCCCC)c3ccccc23)c2ccccc12 | 14.8
28 | N#Cc1cc(C(=O)c2cc(Cl)ccc2O)cn(-c2cc(Cl)cc(Cl)c2)c1=O | 17.4
29 | N#Cc1ccc(-c2ccc3nc(N4CCCN(C5CCC5)CC4)ccc3c2)cc1 | 6.73
30 | O=C(N[C@@H](CC1CCCCC1)C(=O)NC1CCCc2ccccc21)c1ccc(O)c(-c2cccc(C(F)(F)F)c2)c1 (some centres undefined) | 0.73
31 | C=CCc1cc(Cc2cnc(N)nc2N)c2ccc(C)nc2c1O | 1.5
32 | CC1(C)CN2CCCC2c2cc(NC(=O)/C=C/c3ccccc3Cl)ccc21 (centres undefined) | 2.22
33 | Cc1ccccc1C1CCN(C2CCC(NC(=O)c3ccc(-c4ccccc4F)o3)CC2)CC1 (centres undefined) | 5.26
34 | O=C(Nc1cc(Cl)ccc1O)c1ccc(Oc2ccc(C(=O)Nc3cc(Cl)ccc3O)cc2)cc1 | 0.69
35 | O=S(=O)(c1ccccc1)C1CC1 | -0
36 | CSc1ccc(NC(=O)Nc2cc(C)nc3ccccc23)cc1Br | 2.92
37 | CC1(C)NC(N)=NC(=N)N1OCCCOc1c(Cl)cc(Cl)cc1Cl | 2.9
38 | N#Cc1cccc(C(=O)Nc2ccc(-c3nc4ccccc4[nH]3)cc2)c1 | 2.38
39 | O=C(Nc1ccc(Cl)cc1)c1ccc(CN2CCCN(Cc3ccc(F)cc3)CC2)cc1 | 10.8
40 | COc1cc(CNC2Cc3ccccc3C2)ccc1Oc1ccc2nc[nH]c2c1 | -0

Row | Compound | IFI [%]
41 | CCOC(=O)N(C)/N=C/[C@H](CCc1ccccc1)NC(=O)[C@H](CC(C)C)NC(=O)c1cc2cccc(OC)c2o1 | 5.5
42 | c1ccc(-n2cncn2)cc1 | -0
43 | CC(C)OC(=O)c1ccc(NC(=O)N[C@@H](Cc2ccc(O)cc2)C(=O)NC2CCC(CCN3C4CCC3c3ccccc34)CC2)cc1 (some centres undefined) | 4.31
44 | Nc1c(C(=O)NCCCCN2CCN(c3nsc4ccccc34)CC2)sc2ccccc12 | 7.63
45 | COc1ccc2ncc(F)c(CCN3CC(O)C(CNCc4ccc5ccccc5c4)C3)c2n1 (centres undefined) | 8.82
46 | Cc1cc(N(C)C)nc(Nc2ccc(NC(=O)c3ccccc3C)cc2)n1 | 2.33
47 | NC(=O)N1CCN(Cc2ccc(Br)cc2)CC1 | 1.48
48 | Nc1nc(N)c2c(ccc3c2ccn3C2CCCCC2)n1 | 6.62
49 | COc1cc2nc(N[C@@H](CO)c3ccccc3)nc(NCc3ccccc3)c2cc1OC | 2.94
50 | CCOC(=O)N1CCN(CCCCCNc2cc(C)nc(NC(=N)Nc3ccc(Cl)cc3)n2)CC1 | 6.06
51 | O=C(NC1CC1)c1cnc(N2CCC(OCc3ccccc3)CC2)c(Cl)c1 | 2.38
52 | CCOC(=O)c1ccc(NC(=O)c2ccccc2C(=O)O)cc1 | 0.7
53 | O=C(Nc1cccc(CN2CCCN(Cc3ncc[nH]3)CC2)c1)c1ccc(-c2ccccc2)cc1 | 3.42
54 | CC(=O)Nc1ccc2[nH]cc(C3CCN(CC4CCN(C(=O)/C=C/c5ccc(Cl)c(Cl)c5)CC4)CC3)c2n1 | 2.11
55 | COC(=O)c1ccc(NC(=O)Nc2ccc(Cn3ncc(N4CCCNCC4)c(Cl)c3=O)cc2)cc1 | 5.97
56 | O=[N+]([O-])c1cccc(CNCC2CCN(Cc3ccc(Cl)c(Cl)c3)CC2)c1 | 4.23
57 | Cc1cc(C(=O)CN2C(=O)NC3(CCOc4ccccc43)C2=O)c(C)n1Cc1ccc(F)cc1 (centres undefined) | 1.43
58 | Cc1nc(C)c(-c2ccc(Oc3ccc(Cl)c(Cl)c3)cc2)c(O)c1Br | 3.85
59 | NC1CCN(c2nc(NCCc3ccc(O)cc3)nc(NCc3ccccc3-c3ccccc3)n2)CC1 | 4.55
